“And” between values parts separate entries of the source, which are not always exact repeats. Identical values can stand only once.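 Each compound was tested at five concentrations against cells in 96-well plates for 48 hours. Here, GI50 denotes the concentration required for 50% inhibition of growth. TGI is the concentration that stops growth completely.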
system: NCI-H322M lung; experiment: NCI anticancer screen, dose series, 48 h

Row | SMILES | GI50 [µM] | TGI
1 | NS(=O)(=O)c1ccc(N=Nc2c(O)[nH]c3ccc(-c4cnco4)cc23)cc1 | > 25 | > 25 µM
2 | CC1CC[C@]2(C(=O)O)CCC3(C)C(=CC(=O)C4[C@@]5(C)CCC(=O)C(C)(C)C5CC[C@]43C)[C@@H]2[C@H]1C (some centres not stated) | – | > 100 µM
3 | NC(N)=N/N=C(\c1nc2ccc([N+](=O)[O-])cc2[nH]c1=O)C(O)c1ccc([N+](=O)[O-])cc1 (configuration not stated) | – | > 100 µM
4 | O=C(NC1=CC(=O)c2ccccc2C1=O)c1ccccc1 | 4.22 | 16.6 µM
5 | O=C1CC(=Nc2ccc(Cl)cc2)C(c2ccccc2)N1c1ccccc1 (configuration not stated) | – | > 100 µM
6 | CC1OC(OC2C(O[C@H]3CC[C@@]4(C)C(=CC[C@H]5[C@@H]6C[C@@H]7O[C@]8(CC[C@@H](CO)CO8)[C@@H](C)[C@@H]7[C@@]6(C)CC[C@@H]54)C3)OC(CO)C(O)C2OC2OC(CO)C(O)C(O)C2O)C(O)C(O)C1O (some centres not stated) | – | 4.88 µM
7 | NP(=O)(Oc1c2occc2cc2ccc(=O)oc12)N(CCCl)CCCl (configuration not stated) | – | > 100 µM
8 | CN1CCC(O)(C(C)(C)C)CC1 | – | > 100 µM
9 | CC(C)(C)c1ccc2c(c1)S(=O)(=O)Nc1ccccc1NS(=O)(=O)c1cc(C(C)(C)C)ccc1OCCOCCOCCO2 | – | > 100 µM
10 | COc1cccc2c1C(=O)c1c(O)c3c(c(O)c1C2=O)C[C@@](O)(C(C)=O)C[C@@H]3OC1OC(C)C(O)C(N)C1Br (some centres not stated) | – | 1.25 µM
11 | C=C1C(=O)O[C@H]2[C@H]1CC/C(COC(=O)C(=O)c1cn(Cc3ccccc3)c3ccccc13)=C\CC[C@@]1(C)O[C@@H]21 | 7.4 | 20.6 µM
12 | COc1cc(C(=O)N(Cc2cccnc2)C(=S)N(Cc2cccnc2)C(=O)c2cc(OC)c(OC)c(OC)c2)cc(OC)c1OC | – | > 100 µM
13 | Cc1nc(N)sc1C(=O)/C=C\c1ccc2c(c1)OCO2 | – | > 100 µM
14 | NCCCCN(CCCN)/[N+]([O-])=N\O | – | > 100 µM
15 | O=C1CSC(c2cccc(Oc3ccccc3)c2)N1c1ccc(Cl)cc1 (configuration not stated) | – | > 100 µM
16 | CSc1ncnc2c1ncn2C1CC(Oc2ccc(C)cc2)C(COc2ccc(C)cc2)O1 (configuration not stated) | – | > 100 µM
17 | CCCN1CCC(=O)N(CCC(F)(F)C(F)(F)C(F)(F)C(F)(F)C(F)(F)C(F)(F)F)C1=S | – | > 100 µM
18 | Nc1cc2[nH]c(=O)c(=O)[nH]c2cc1N | – | > 100 µM
19 | CC(=O)/C(C)=N/NC(=O)c1ccccc1O | > 100 | > 100 µM
20 | COc1cc2c(c(OC)c1OC)-c1ccc(OC)c(=O)cc1[C@@H](NC(=O)c1ccccc1)CC2 | > 30 | > 30 µM and 14.8 µM
21 | CC(=O)OCC12C(=O)C[C@@H](C)C3(CC(c4ccoc4)OC3=O)C1CCC(OC(C)=O)C21CO1 (some centres not stated) | – | > 100 µM
22 | CC1(C)C(=O)N(CCCCCCN2C(=O)C(C)(C)c3ccccc32)c2ccccc21 | – | > 100 µM
23 | COc1ccc(-c2n[nH]nc2-c2cc(OC)c(OC)c(OC)c2)cc1 | < 0.0142 | > 100 µM
24 | COc1cc(/C=C2\C(=O)N(c3ccccc3)C(c3ccccc3)S2(=O)=O)cc(OC)c1OC (configuration not stated) | – | > 100 µM
25 | NN/C(=N\S(=O)(=O)c1cc2ccccc2s1)Nc1ccc(Cl)cc1 | – | 46.6 µM
26 | O=C(N/N=C\c1cccc2c([N+](=O)[O-])cccc12)Nc1ccccc1 | – | 29 µM

Row | SMILES | GI50 [µM] | TGI
27 | O=C(Cc1ccccc1)NN1C(=O)C(Cl)C1c1cc(Br)ccc1O (configuration not stated) | – | > 100 µM
28 | COC(C(O)CO)C(O)C(O)C(=O)NNc1ccccc1 (configuration not stated) | – | > 100 µM
29 | Cc1ccc(-c2c(C#N)c(-c3ccc(Cl)cc3)c(C#N)c(=O)n2NS(=O)(=O)c2ccc(C)cc2)cc1 | – | > 100 µM
30 | O=C1/C(=C/c2ccc([N+](=O)[O-])cc2)C(=O)N(c2ccccc2)C1c1ccccc1 (configuration not stated) | – | > 10 µM
31 | CCOC(=O)/C=C(/C(=O)OCC)n1ccc(=O)n(Cc2cn(COCCOC(C)=O)nn2)c1=O | – | > 100 µM
32 | Cc1cccc(NC(=O)C(=O)C(C(=O)c2ccc3ccccc3c2)C2OC(=O)c3ccccc32)c1C (configuration not stated) | – | 41.3 µM
33 | O=C(N/N=C/c1ccccc1)c1c(-c2cccnc2)cnc2ccccc12 | – | > 100 µM
34 | COc1cc2nc3cc([N+](=O)[O-])ccc3c(NCCCNCCO)c2cc1OC | 0.171 | 0.571 µM
35 | O=C(NI1OC(=O)c2ccccc21)c1ccc(Cl)cc1 | – | > 100 µM
36 | Oc1ccccc1C(Sc1nc2ccccc2s1)Sc1nc2ccccc2s1 | – | > 100 µM
37 | Cc1cn(C2CC(O)C(CO)O2)c(=O)n2nnnc12 (configuration not stated) | – | > 100 µM
38 | COc1cc2c(cc1OC)C(CC(=O)NN=C(C)C)NCC2 (configuration not stated) | – | > 100 µM
39 | COc1ccccc1CCc1cc(OC)c(OC)c(OC)c1 | – | > 100 µM
40 | O=C(O)C1OC(n2cc(F)c(=O)[nH]c2=O)CC1O (configuration not stated) | – | > 100 µM
41 | Nn1c(=O)n(Cc2ccccc2)n(-c2ccccc2)c1=O | – | > 100 µM
42 | COC1=CC(=O)c2nc(-c3cccc(C)n3)[nH]c2C1=O | 20 | 46.1 µM
43 | CCCCCCCC/C=C/CCCCCCCC(=O)OC[C@H]1O[C@@H](n2ccc(N)nc2=O)C(F)(F)[C@@H]1O | 0.452 | > 100 µM
44 | C[C@@]12CC=C3c4nc(Nc5cccc(O)c5)sc4CC[C@]3(C)[C@H]1CC[C@]1(C)C(=O)CC[C@@H]21 | 3.92 | > 100 µM
45 | O=C(NCCCNCCCNC(=O)c1cc(-c2ccccc2)nc2ccccc12)c1cc(-c2ccccc2)nc2ccccc12 | – | 4.85 µM
46 | CCN(CC)C(=O)Cn1c(C)cc2ccccc21 | – | > 100 µM
47 | O=C1C=CC[C@H]2O[C@@H](COC(=O)Cc3ccccc3)C[C@H]2O1 | – | > 100 µM
48 | O=c1cc(-c2ccc(F)cc2)[nH]c2ncc(Cl)cc12 | – | > 80.4 µM
49 | CCOc1ccccc1NC(=O)CC(C(=O)OC)C(=O)C(=O)OC (configuration not stated) | – | > 100 µM
50 | N#CCN1C(=O)c2cccc3cc([N+](=O)[O-])cc(c23)C1=O | – | > 100 µM
51 | N=C1C(c2nc3ccccc3s2)=C(O)CN1c1cc(C(F)(F)F)ccc1Cl | 47.2 | > 100 µM
52 | CCC[CH2][Sn]1([CH2]CCC)[O]CC(CN2CCCC2)[O]1 (configuration not stated) | 28.6 | > 100 µM

Row | SMILES | GI50 [µM] | TGI
53 | O=C1C(CN2CCCCC2)CCC1CN1CCCCC1 (configuration not stated) | – | 94.6 µM
54 | CCOC(=O)CC1(C(=O)OCC)c2[nH]c3ccccc3c2CCN1Cc1ccccc1 (configuration not stated) | – | > 100 µM
55 | COc1ccc(Nc2c3ccccc3nc3occc23)cc1 | 4.69 | 20.4 µM
56 | CCCCN1C(=O)N(c2ccc(OCC)cc2)C2N(CCCC)C1C(C)(C)C2(C)C (configuration not stated) | – | > 100 µM
57 | CCOCc1nc2c(OC)cc(-c3nc4ccc(N5CCN(C)CC5)cc4[nH]3)c(OC)c2[nH]1 | – | > 100 µM
58 | COC1=C(C)C(=O)c2c(c(COC(N)=O)c3n2CC2C3N2C)C1=O (configuration not stated) | – | 0.391 µM
59 | O=P(Nc1ccc(Cl)cc1)(Oc1ccccc1)N(CCCl)CCCl (configuration not stated) | – | > 100 µM
60 | CCOC(=O)c1cc(C(O)P2(=O)N(CC(C)(C)C)[C@@H]3CCCC[C@H]3N2CC(C)(C)C)cn1C(=O)OC(C)(C)C (some centres not stated) | – | 47.7 µM
61 | C[C@@H]1CC(=O)C2CCCC1C2=O (some centres not stated) | – | > 100 µM
62 | COc1ccc2ccccc2c1/C=C/C(=O)c1ccccc1 | – | 12.8 µM
63 | O=C(N/N=C/c1ccc(Cl)cc1)c1ccc(C(F)(F)F)nc1Nc1cccc(C(F)(F)F)c1 | 1.3 | 16 µM
64 | NC(N)=NCCC[C@H](N)C(=O)NCC(=O)N[C@@H](CC(=O)O)c1ncc(NC(=O)C(F)(F)F)o1 | – | > 25 µM
65 | Cc1ccc([N+](=O)[O-])cc1S(=O)(=O)Nc1ccc(C2=NNC(c3ccccc3)C2)cc1 (configuration not stated) | – | > 100 µM
66 | CN1c2ccc(Cl)cc2C(=O)NC1c1ccc([N+](=O)[O-])s1 (configuration not stated) | – | 65.2 µM
67 | c1cc(CNC23CC4CC(CC(C4)C2)C3)cc(C[N+](Cc2cccc(CNC34CC5CC(CC(C5)C3)C4)c2)(Cc2cccc(CNC34CC5CC(CC(C5)C3)C4)c2)Cc2cccc(CNC34CC5CC(CC(C5)C3)C4)c2)c1 (configuration not stated) | 5.25 | 21.3 µM
68 | CN1CCN(CCCOc2ccc3nc(Nc4ccc(Cl)c(C(F)(F)F)c4)ccc3c2)CC1 | 15.2 | 29.5 µM
69 | CC(=O)OC(/C=C/c1ccccc1)=C(OC(C)C)/C1=C(\c2ccccc2)SCCCSC1=O | – | > 100 µM
70 | Clc1ccc(C2=Nn3c(COc4ccccc4Cl)nnc3SC2)c(Cl)c1 | 25.4 | 82.5 µM
71 | COC(=O)[C@@H](C)CNS(=O)(=O)N(c1cc(C(F)(F)F)cc(C(F)(F)F)c1)C1CCN(Cc2ccc(F)cc2)CC1 | 13.9 | 29.4 µM
72 | COc1ccccc1/C=C1\SC(=S)N(/C=C2\C(=O)Oc3ccccc3C2=O)C1=O | – | > 100 µM
73 | CC(=O)[O-].CCN(CC)c1ccc(C=NCCN=Cc2ccc(N(CC)CC)cc2[O-])c([O-])c1.[Mn+3] | 22.6 | 43 µM
74 | Cc1cn(C2CC(N(O)Cc3ccccc3)C(CO[Si](C)(C)C(C)(C)C)O2)c(=O)[nH]c1=O (configuration not stated) | – | 65.1 µM and 32.7 µM
75 | COC1(OC)C2(Cl)C(Cl)=C(Cl)C1(Cl)C1C=CC=CC12 (configuration not stated) | – | > 100 µM
76 | CCOC(=O)c1nc2ccc(C(F)(F)F)cc2nc1NCc1cc(OC)c(OC)c(OC)c1 | – | > 100 µM
77 | COc1cc(/C=C2/C[C@H]3[C@@H]4CC=C5C[C@@H](O)CC[C@]5(C)[C@H]4CC[C@]3(C)NC2=O)cc(OC)c1OC | – | > 62.9 µM
78 | CC12C(=O)CC(CC1=O)C2(C)C | – | > 100 µM

— PubChem BioAssay (NCI)
